Experimental data as given in the RNAGym collection of RNA variant scans (doi:10.1073/pnas.2313332121).
This sample is rich in variants without activity.

B1: TPR 5TU (parent)
chain: GGAUCUUCUCGAUCUAACAAAAAAGACAAAUCUGCCACAAAGCUUGAGAGCAUCUUCGGAUGCAGAGGCGGCAGCCUUCGGUGGCGCGAUAGCGCCAACGUUCUCAACUAUGACACGCAAAACGCGUGCUCCGUUGAAUGGAGUUUAUCAUG

Variants of: B1
Experiment: polymerase ribozyme fitness, log enrichment relative to wild type (log ratio); higher = more active; in vitro selection for triplet polymerase activity
Method in brief: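 Mutant libraries were PCR-built and transcribed for each subunit of a heterodimeric triplet polymerase ribozyme and selected for one round in triplicate at −7 °C, frozen, before gel excision of extended constructs and streptavidin-bead capture. Input and output libraries were Illumina-sequenced, keeping genotypes with ≥10 input reads and ≥1 read per output. Fitness is a logarithmic ratio of genotype to wild-type enrichment, in base 2, using inverse-variance-weighted replicate averages.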

| Variant | polymerase ribozyme fitness (log ratio) |
| --- | --- |
| GGAUCUUCUCGAUCUAACAAAAAAGACAAAUCUGCCACAAAGCUUCAGAGCAUCUACGGAUGCAGAGGCGGCAGCCCUCGGUGGCGCGAUAGCGCCAACGUUCUCAACUAUGACACGCCAAACGCGUGCUCCGUUGAAUGGAGUUUAUCAUG [G46C U56A U77C A119C] | ≤ -4.2 |
| GGAUCUUCUCGAUCUAACAAAAAAGACAAAUCUGCCACAAAGCUUCAGAGCAUCUUCGGAAGUAGAGGCGGCAGCCUUCGGAGGCGCGAUAGCGCCAACGUUCUCAACUAUGACACGCAAAGCGCGUGCUCCGUUGAAUGGAGUUUAUCAUG [G46C U61A C63U U82A A122G] | ≤ -4.2 |
| GGAUCUUCUCGAUCUAACAAAAAAGACAAAUCUGCCACAAAGCUUCAGAGCAUCUUCGGAUGCAGAGGCGGCAGCCGUCGGUGGCGCGAUAGCGCCAACGUUCUCAACUAUGACACGCAAAACGCGUGCUCCGUUGAAUGGCGUUUAUCAUG [G46C U77G A142C] | ≤ -4.2 |
| GGAUCUUCUCGAUCUAACAAAAAAGACAAAUCUGCCACAAAGCUUCAGAGCAUCUUCGGAUGCAGAGGCGGCAGCCUGAGGUGGCGCGAUAGCGCCAACGUUCUCAACUAUGACACGCAAAACGCGUGCUCCGUUGAAUGGAGAUUAUCAUG [G46C U78G C79A U144A] | ≤ -4.2 |
| GGAUCUUCUCGAUCUAACAAAAAAGACAAAUCUGCCACAAAGCUUCAGAGCAUCUUCGGAUGCAGAGGCGGCAGCCUUCGGUGGCGCGAUAGCGCCAACGGUCUCAUCUAUGACACGCAAAACGCGUGCUCCGUUGCAUGGAGUUUAUCAUG [G46C U101G A107U A137C] | -4.12 |
| GGAUCUUCUCGAUCUAACAAAAAAGACAAAUCUGCCACAAAGCUUCAGAGCAUCUUCGGAUGCAGAGGCGGCAGCCUUCGGUGGCGCGAUAGCGCCAACGUGCUCUACUAUGACACGCAAAACGCGUGCUCCGUUGAAUGGAGUUUAUCAUA [G46C U102G A106U G152A] | ≤ -4.2 |
| GGAUCUUCUCGAUCUAACAAAAAAGACAAAUCUGCCACAAAGCUUUAGAGCGUCUUCGGAUGCAGAGGCGGCAGCCUUCGGUGGCGCGAUAACGCCAACGUUCUCAACUAUGAUACGCAAAACGCGUGCUCCGUUGAAUGGAGUUUAUCAUG [G46U A52G G92A C114U] | ≤ -4.2 |
| GGAUCUUCUCGAUCUAACAAAAAAGACAAAUCUGCCACAAAGCUUUAGAGCAUCUUCGGGUGCACAGGCGGCAGCCUUCGGGGGAGCGAUAGCGCCAACGUUCUCAACUAAGACACGCAAAACGCGUGCUGCGUUGAAUGGAGUUUAUCAUG [G46U A60G G65C U82G C85A U111A C131G] | ≤ -4.2 |
| GGAUCUUCUCGAUCUAACAAAAAAGACAAAUCUGCCACAAAGCUUUAGAGCAUCUUCGGAUGCAGAGGCGGCAGCCUUCGGUGGCGCGAUAGCGCCAGCGUUCUCAACUAUGACACGCAAAACGCGUGCUCCGUUGAAUGGAGUUUAUCAUG [G46U A98G] | 0.0194 |
| GGAUCUUCUCGAUCUAACAAAAAAGACAAAUCUGCCACAAAGCUUUAGAGCAUCUUCGGAUGCAGAGGCGGCAGCCUUCGGUGGCGCGAUAGCGCCAACGUUCUCAACUAUGACACGCACAACGCGUGCUCCGUUGAAUGGAGUUUAUCAUG [G46U A120C] | -0.32 |
| GGAUCUUCUCGAUCUAACAAAAAAGACAAAUCUGCCACAAAGCUUUAGAGCAUCUUUGGAUGCAGAGGCGGCAGCCUUCGGUGGCGCGAUAGCGCCAAAGUUUUCAUCUAUGACACGCAAAACCCGUGCUCCGUUGAAUGGAGUUUAUCAUG [G46U C57U C99A C103U A107U G124C] | ≤ -4.2 |
| GGAUCUUCUCGAUCUAACAAAAAAGACAAAUCUGCCACAAAGCUUUAGAGCAUCUUCGGAUGCAGAGGCGGCAGCCUUCGGUGGCGCGAUAGCGCCAACGUUCUCAACUAUGACACGCAAAACGCGUGCUGCGUUGAAUGGAGUUUAUCAUG [G46U C131G] | ≤ -4.2 |
| GGAUCUUCUCGAUCUAACAAAAAAGACAAAUCUGCCACAAAGCUUUACAGCAUCUUCGGAUGCAGAGGCGGCAGCCUUCGGUGGGGCGAUAGCGCCAACGUUCGCAACUAUGACACGCGAAACGCGUGCUCCGUUGAAUGGAGUUUAUCAUG [G46U G48C C85G U104G A119G] | ≤ -4.2 |
| GGAUCUUCUCGAUCUAACAAAAAAGACAAAUCUGCCACAAAGCUUUAGAACAUCUUCGGAUGCGGAGGCGGCAGCCUUCGGUGGCGGGAUAGCGCCAACGUUCUCAACUAUGACACGCAAAACGCGUGCUCCGUUGAAUGGAGUUUAUCAUG [G46U G50A A64G C87G] | ≤ -4.2 |
| GGAUCUUCUCGAUCUAACAAAAAAGACAAAUCUGCCACAAAGCUUUAGACCAUCUUCGGAUGCAGAGGCGGCAGCCUUCGGUAGCGCGAUAGCGCCAACGUUCUCAACUAUGACACGCAAAACGCGUGCUCCGUUGAAUGGAGUUUAUCAUG [G46U G50C G83A] | ≤ -4.2 |
| GGAUCUUCUCGAUCUAACAAAAAAGACAAAUCUGCCACAAAGCUUUAGACCAACUUCGGAUGCAGAGGCGGCAGCCUUCGGUGGGGCGAUAGCGCCAACGUUCUCAACUAUGACACGUAAAACGCGUGAUCCGUUGAAUGGAGUUUAUCAUG [G46U G50C U53A C85G C118U C129A] | ≤ -4.2 |
| GGAUCUUCUCGAUCUAACAAAAAAGACAAAUCUGCCACAAAGCUUUAGAGCAUCUUCGUAUGCAGAGGCGGCAGCCUGCGGUGGCGCGAUAGCGCCAACGUUCUCAACUAUGACACGCAAAACGCGUGCUCCGUUGAAUGGAGUUUGUCAUG [G46U G59U U78G A147G] | ≤ -4.2 |
| GGAUCUUCUCGAUCUAACAAAAAAGACAAAUCUGCCACAAAGCUUUAGAGCAUCUUCGGAUGCAGAGCCGGCAGCCUUCGGUGGCGCGAUAGCCCCAACGUUCUCAACUAUGACAGGCGAAACACGUGCUCCGUUGAAUGGAGUUUAUCAUG [G46U G68C G94C C116G A119G G124A] | ≤ -4.2 |
| GGAUCUUCUCGAUCUAACAAAAAAGACAAAUCUGCCACAAAGCUUUAGAGCAUCUUCGGAUGCAGAGGCGACAGCCUUCGGUGGCGCGAAAGCGGCAACGUUCUCAACUAUGACACGCAAAACGCGUGCUCCGUUGAUUGGAGUUUAUCAUG [G46U G71A U90A C95G A138U] | ≤ -4.2 |
